# Source: article PMC4336329 (PLoS ONE, 2015)
# The campaign covered roughly 310,000 compounds. About 14,000 (4.5%) showed an effect of 50% or more. Effects have a minus sign here. The list shows a part of the results.
# Biological target: human ether-à-go-go-related gene (hERG) potassium channel (human, UniProt Q12809)
# Assay: primary screen, population patch clamp on CHO cells stably expressing hERG
# 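Note: peak tail current of the secondary pulse compared with the same well before compound.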
# Chain of human ether-à-go-go-related gene (hERG) potassium channel (Q12809 whole entry, looked up): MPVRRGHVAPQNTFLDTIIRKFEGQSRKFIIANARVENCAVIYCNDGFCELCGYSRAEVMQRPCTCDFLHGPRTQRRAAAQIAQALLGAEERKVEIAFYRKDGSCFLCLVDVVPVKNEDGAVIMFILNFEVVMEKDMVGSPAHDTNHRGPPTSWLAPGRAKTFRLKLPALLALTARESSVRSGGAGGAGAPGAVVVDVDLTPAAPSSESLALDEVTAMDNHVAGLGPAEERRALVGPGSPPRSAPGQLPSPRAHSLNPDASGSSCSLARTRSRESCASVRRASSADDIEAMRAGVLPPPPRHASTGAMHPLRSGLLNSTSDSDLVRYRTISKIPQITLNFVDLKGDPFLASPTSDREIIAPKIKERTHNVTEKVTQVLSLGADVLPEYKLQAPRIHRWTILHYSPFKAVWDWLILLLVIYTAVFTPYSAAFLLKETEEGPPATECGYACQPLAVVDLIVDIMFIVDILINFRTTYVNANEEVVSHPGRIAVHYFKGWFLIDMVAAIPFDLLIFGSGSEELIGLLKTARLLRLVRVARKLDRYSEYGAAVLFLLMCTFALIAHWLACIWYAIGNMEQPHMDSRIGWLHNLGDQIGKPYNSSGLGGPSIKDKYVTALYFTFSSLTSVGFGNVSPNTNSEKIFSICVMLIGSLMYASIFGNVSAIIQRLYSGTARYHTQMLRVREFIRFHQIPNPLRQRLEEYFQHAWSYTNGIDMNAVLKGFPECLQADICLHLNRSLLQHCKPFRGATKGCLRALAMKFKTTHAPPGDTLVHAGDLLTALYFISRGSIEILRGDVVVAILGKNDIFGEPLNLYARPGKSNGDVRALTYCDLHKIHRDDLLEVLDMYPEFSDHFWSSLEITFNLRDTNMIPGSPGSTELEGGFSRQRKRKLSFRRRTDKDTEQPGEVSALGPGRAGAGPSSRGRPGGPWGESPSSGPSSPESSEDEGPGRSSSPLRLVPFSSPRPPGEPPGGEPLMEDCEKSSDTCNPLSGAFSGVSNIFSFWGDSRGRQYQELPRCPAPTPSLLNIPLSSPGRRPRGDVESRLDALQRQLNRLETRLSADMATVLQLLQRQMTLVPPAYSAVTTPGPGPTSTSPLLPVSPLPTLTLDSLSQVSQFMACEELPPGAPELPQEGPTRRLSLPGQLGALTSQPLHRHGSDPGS
row,Compound,"hERG current change (%, negative = inhibition) at 10uM [%]"
1,O=C(OCCOCCN=C1NS(=O)(=O)c2ccccc21)c1ccccc1,2.47
2,CC1CCN(CCOCCOc2ccccc2Br)CC1,-30.1
3,CN1CCC(=NNC(=O)CN(c2ccccc2)S(=O)(=O)c2ccccc2)CC1,-1.63
4,COc1ccc(-c2cc(CCCC(=O)NCCc3ccccc3)no2)cc1,-5.93
5,O=c1c2ccccc2nc2n1CCCCC2,-4.17
6,CC(=O)N=C1C=CC(=CN(O)C(C)(C)Cc2ccccc2)C=C1,-6.17
7,CC(C)(C)c1ccc(OCC(=O)Nc2ccncc2)cc1,8.71
8,COc1ccc([C@H]2CC(=O)C=C(c3cccc(F)c3OC)C2)cc1,-0.411
9,CC(C)c1ccc(OCC(=O)Nc2ccc(S(=O)(=O)Nc3ccccn3)cc2)cc1,10.7
10,CCc1c(C)nc2ncnn2c1Nc1ccc(C(C)=O)cc1,-41.6
11,C/C=C(/C)C(=O)Nc1cccc(C2=NOC3(C2)C[C@H](C(N)=O)N(C(=O)c2ccc(Cl)cc2)C3)c1 (stereo partly shown),-14.7
12,COc1ccc(CNC(=O)CSc2nc3[nH]ncc3c(=O)n2-c2ccccc2Br)cc1,9.21
13,CCOC(=O)C1=C(C)NC(C)=C(C(=O)OCC)C1c1ccccc1/C=C/C(=O)OC(C)(C)C,16.6
14,CN(c1ccccc1)S(=O)(=O)c1cc(C(=O)N2CCN(c3ccccn3)CC2)ccc1Cl,-16.3
15,COc1ccc(C(=O)N(Cc2nc(-c3ccc(C)cc3)no2)C(C)C)cc1OC,-31.4
16,CCN(CC)C(=O)Cn1cc(S(=O)(=O)CC(=O)Nc2ccccc2C)c2ccccc21,-5.17
17,C=CCSc1nnc(NC(=O)c2ccc(Cl)nc2)s1,8.73
18,CCCOc1cc(C)c(S(=O)(=O)N2CCN(C)CC2)cc1C,-12.7
19,COc1ccc(CSc2ncn[nH]2)cc1[N+](=O)[O-],2.83
20,COc1ccc(NC2=C(Cl)C(=O)N(CCc3ccccc3)C2=O)cc1,-42.2
21,Cc1ccc(CNC(=O)c2ccccc2NC(=O)CN2CC(C)OC(C)C2)cc1 (stereo not shown),-13.2
22,C=CCOC(=O)c1sc(NC(=O)c2ccco2)nc1C,5.9
23,Cc1cc(=O)n2c(n1)OC(CO)C2 (stereo not shown),13.3
24,CCOC(=O)CCc1c(C)c2ccc(OCc3nn[nH]n3)c(C)c2oc1=O,16.4
25,O=C(NCc1n[nH]c(=S)n1-c1cccc(Cl)c1)c1ccc(S(=O)(=O)N2CCCC2)cc1,7.61
26,S=c1[nH]nc(C2CCCCC2)n1/N=C/c1ccncc1,4.39
27,CC(=O)NNc1ncnc2c1cnn2-c1ccc(C)c(C)c1,49.1
28,CCN(C(=O)c1cnc(NC(C)C)cc1C(F)(F)F)c1ccc(Cl)cc1Cl,1.45

row,Compound,"hERG current change (%, negative = inhibition) at 10uM [%]"
1,CCc1nccn1CCC(=O)N1CCCC(N2CCN(c3cccc(Cl)c3)CC2)C1 (stereo not shown),-36.1
2,COc1ccc(NC(=O)CSc2nc3c(c(=O)n2-c2ccc(C)cc2)SCC3)c(OC)c1,-1.29
3,CCOc1ccccc1Cn1c(=O)sc2ccccc21,7.43
4,COC(=O)Cc1ccc(NC(=O)c2ccc(C)c(C)c2)cc1,-4.91
5,CCCc1nc2ccccc2[nH]1,24.6
6,O=c1c2ccccc2nc(/C=C/c2cccc([N+](=O)[O-])c2)n1CCO,-17.5
7,O=C(NCc1ccccc1)c1ccc(NC2=NC3CS(=O)(=O)CC3S2)cc1 (stereo not shown),3.34
8,COc1cccc(CNc2nccs2)c1O,16.9
9,Cc1cc(C)nc(N2CCC(C(=O)NNC(=O)c3ccccc3)CC2)n1,14.8
10,CC(C)c1ccc(C2(C)NC(=O)N(CC(=O)N3CCN(C(=O)c4cccs4)CC3)C2=O)cc1 (stereo not shown),-20.8
11,COc1ccccc1N1CCN(Cc2c(F)cccc2F)CC1,-18
12,CC1Sc2ccc(S(=O)(=O)CCC(=O)NCc3ccccc3Cl)cc2NC1=O (stereo not shown),0.444
13,CSc1nn(-c2ccc(C(=O)OC(C(=O)NC(N)=O)C(C)C)cc2)c(=S)s1 (stereo not shown),25.6
14,Cc1ccccc1C(=O)Nc1ccccc1C(=O)NC1CC1,6.72
15,O=C(CSc1nnc(COc2cccc3cccnc23)o1)N1CCN(C(=O)c2ccco2)CC1,0.452
16,CCN(C(=O)CN(C)Cc1c(F)cccc1Cl)c1c(N)n(Cc2ccccc2)c(=O)[nH]c1=O,10.1
17,O=C(COC(=O)CCCN1C(=O)c2cccc3cccc(c23)C1=O)Nc1cccc(Br)c1,6.6
18,COc1ccc(OC)c(CCNC(=O)c2ccccc2NC(=O)C2=C(C)OCCS2)c1,-6.28
19,CCOP(=O)(OCC)C(Nc1ccccc1)c1cc(OC)ccc1OC (stereo not shown),-20.5
20,COc1ccc(NC2CCCN(C(=O)CCN3CCCO3)C2)cc1 (stereo not shown),3.62
21,C/C(=N\NC(=S)NC(C)C)c1ccc(Cl)s1,1.02
22,CC(OC(=O)CNC(=O)c1sc2ccccc2c1Cl)c1ccccc1 (stereo not shown),8.16
23,Cn1c(NCc2ccccc2)nc2c1c(=O)n(Cc1ccccc1)c(=O)n2C,-4.32
24,COc1ccccc1N1CCN(Cc2nc(-c3ccc(F)cc3)oc2C)CC1,-65.9
25,CCOCc1cnc(C)nc1NCC(=O)c1c(C)[nH]c2ccc(OC)cc12.I,2.7
26,CCOC(=O)c1c(NC(=O)c2cnn3c2NC(c2cccc(OC)c2)CC3C(F)(F)F)sc2c1CCCC2 (stereo not shown),0.45
27,CCOC(=O)N1CCN(Cc2nc3ccc([N+](=O)[O-])cc3c(=O)n2-c2ccccc2F)CC1,-69.9
